# Results published in patent US8197863B2, “Hop acids as a replacement for antibiotics in animal feed” (John I. Haas, Inc., priority 2002, dated 2012).
# What was measured:
# [1] = test system: rumenal fluid containing a bacterial mixture commonly found in cattle; experiment: End products of in vitro fermentation (pH, lactate, VFA); assay type: cell-based; details: alfalfa; hop acids 2 ppm, monensin 6 ppm; vs control
# Source text: Proprionate is largely responsible for animal growth. […] Lactate is an intermediate in the formation of propionate. One concern with increasing lactate levels is a drop in pH. Lactate is a fairly strong acid and low pH's in the rumen reduces food and energy uptake. […] The beta acids are able to control harmful bacteria, thus allowing the formation of more lactate, an intermediate for the production of propionate. In Example 4, barley was allowed to ferment in an artificial gut to which 1.25 ppm, 2.5 ppm or 3.75 ppm of beta acids were added and the volatile fatty acid end products of the in vitro fermentation of barley were measured. Beta acids are effective at killing and inhibiting the growth of gram-positive bacteria and protozoa but not gram-negative bacteria. Since acetate is formed by the gram-negative bacteria, B. ruminicola, it is not expected that beta acids would control the formation of acetate. However, a slight reduction in acetate levels is expected if propionate levels increase. […] As the amount of beta acid increases in the synthetic gut, the amount of proprionate increases. […] In Example 5, alfalfa was allowed to ferment in an artificial gut to which 1.25 ppm, 2.5 ppm or 3.75 ppm of beta acids were added and the volatile fatty acid end products of the in vitro fermentation of alfalfa were measured. […]
# [2] = test system: rumenal fluid containing a bacterial mixture commonly found in cattle; experiment: In vitro gas production, artificial rumen fermentation; details: monensin 6 ppm
structure (smiles),measurement,setting,value
CC[C@@]1([C@@H]2O[C@@H]([C@H]3O[C@@](O)(CO)[C@H](C)C[C@@H]3C)C[C@@H]2C)CC[C@H]([C@]2(C)CC[C@]3(C[C@H](O)[C@@H](C)[C@@H]([C@@H](C)[C@@H](OC)[C@H](C)C(=O)O)O3)O2)O1 [monensin],propionate,[1],increased significantly
same,Gas Production Rate,[2]; alfalfa,9.2^a %/hr
same,Gas Production per g fermented,[2]; alfalfa,263^ab mL/g fermented
same,Gas Production Rate,[2]; barley,9.1^b %/hr
same,Gas Production per g fermented,[2]; barley,212^bc mL/g fermented
same,Gas Production Rate,[2]; corn,8.9^b %/hr
same,Gas Production per g fermented,[2]; corn,233^ab mL/g fermented

# Marks after values point to notes of the source that are not given here.
